Article PMC12040169 (PLOS Biology, 2025)
The list shows a part of the results.

Each molecule was assayed on T1, C. trachomatis L2/434/Bu expressing GFP (CTL2-GFP). Details: total inclusion area; 28.5 h, 10 µM; inhibitor.
T1 construct: L2/434/Bu GFP intracellular growth in HeLa cells
Design: species or system HeLa; C. trachomatis total inclusion area by high-content imaging, normalised to DMSO
Method in brief: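 After bulk GFP and resorufin fluorescence reads, cells were fixed, stained with Hoechst and imaged by high-content microscopy. Inclusion area and number (GFP) stood in for chlamydial growth, nuclei count (Hoechst) for host cell viability. MICs were derived as for the bulk readout.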

Row | SMILES | % of control remaining
1 | OCCN1CC2(CCN(CCC(c3ccccc3)c3ccccc3)CC2)c2ccccc21 [CBK126765] | 88.7197
2 | CCOC(=O)c1cnc2ccc(Cl)cc2c1N1CCOCC1 [CBK307627] | 95.7036
3 | O=C(O)Cc1ccc(NS(=O)(=O)c2ccc(F)cc2)cc1 [CBK269981] | 86.3579
4 | O=C(O)COc1ccccc1/C=C/c1cc(C(F)(F)F)[nH]c(=O)n1 [CBK287017] | 83.5771
5 | Clc1cc(NCCc2c[nH]c3ccccc23)n2nccc2n1 [CBK037218] | 63.6347
6 | Cc1cnc(CNC(=O)N2CCN(c3ccc(F)cc3)CC2)cn1 [CBK156392] | 108.255
7 | O=C(NCC1CCCO1)C1CCCN(C(=O)c2cc(-c3ccccn3)[nH]n2)C1 (stereo not shown) [CBK210893] | 102.329
8 | Nc1ncnc2[nH]c(SCc3nc4ccccc4n3Cc3ccccc3)nc12 [CBK264148] | 78.791
9 | S=C(NCCN1CCCCC1)NCC1CCCO1 (stereo not shown) [CBK268129] | 82.2572
10 | Cc1c(C(=O)N2CCOCC2)sc2nc(-c3ccc(Cl)cc3)nn12 [CBK010863] | 85.4642
11 | CC1CCCN(c2ccc(NS(=O)(=O)c3ccc4[nH]c(=O)[nH]c(=O)c4c3)cc2)C1 (stereo not shown) [CBK286376] | 109.371
12 | Cn1cccc1C(=O)Nc1ccccc1N1CCNCC1 [CBK029450T] | 93.4003
13 | O=C(Nc1ccc2[nH]ccc2c1)c1ccc(Br)cc1Cl [CBK159679] | 65.9211
14 | CN(C)Cc1ccccc1-n1cc(-c2cccnc2)nn1 [CBK113064] | 97.2151
15 | Cc1ccccc1OCC(=O)Oc1ccc(-c2cnc3ccccc3n2)cc1 [CBK264703] | 105.114
16 | O=C(O)Cc1nn(Cc2ccccc2)c(=O)c2ccccc12 [CBK262315] | 69.5716
17 | Cc1c(C(=O)Nc2ccc(S(=O)(=O)NCC3CCCO3)cc2)cccc1[N+](=O)[O-] (stereo not shown) [CBK267533] | 100.983
18 | O=C(Cn1cccn1)NC(Cc1ccsc1)c1nccs1 (stereo not shown) [CBK284666] | 47.8497
19 | O=C(Nc1ccc(C(=O)N2CCOCC2)cc1)c1cc(-c2cccnc2)nc2ccc(Cl)cc12 [CBK267725] | 102.059
20 | O=C(C1CCCCC1)N1CCC(c2n[nH]c3ncccc23)CC1 [CBK284905] | 103.316

Row | SMILES | % of control remaining
21 | Cc1cc(O)ccc1Nc1cc(-c2ccc3c(c2)OCO3)ncn1 [CBK091053] | 149.101
22 | O=C(Nc1ccc(NC(=O)C2CC=CCC2C(=O)O)cc1Cl)C1CCCCC1 (stereo not shown) [CBK268772] | 82.7991
23 | O=C(c1ccc(Nc2ccnc3cc(C(F)(F)F)ccc23)cc1)N1CCC(O)(c2cccc(C(F)(F)F)c2)CC1 [CBK012467] | 107.716
24 | O=S(=O)(Nc1ccc(-c2nnn[nH]2)cc1)c1cc(Cl)c(Cl)s1 [CBK154745] | 80.1142
25 | COc1ccc(CN2CCN(Cc3cc(Br)ccc3O)CC2)cc1OC [CBK263632] | 80.8412
26 | CC(=O)Oc1c(C)cc(CN(C)C(C)c2ccncc2)cc1C (stereo not shown) [CBK306915] | 87.3616
27 | COc1ccc(/C=C(\C)C(=O)NCc2ccc(OC3CCNCC3)cc2)cc1OC [CBK038914T] | 88.9189
28 | CC1CC1C(=O)N1CCCC(c2cc3cccnc3[nH]2)C1 (stereo not shown) [CBK282156] | 101.944
29 | NS(=O)(=O)c1ccc(CNC(=O)c2ccc(-c3ccc(OC(F)(F)F)cc3)nc2)cc1 [CBK156246] | 100.374
30 | O=C(c1ccco1)N1CCN(CC(=O)N2c3ccccc3OCC2c2ccccc2)CC1 (stereo not shown) [CBK239722] | 99.8839
31 | COc1ccc(CCCC(=O)NCc2sc(-c3ccccc3)nc2C)cc1OC [CBK092353] | 86.3449
32 | COCCCn1c(=O)[nH]c2ncc(-c3ccc(O)cc3)nc21 [CBK064425] | 130.613
33 | CCN(CC)CC(C)C(O)(c1ccccc1)c1ccccc1 (stereo not shown) [CBK012065C] | 110.081
34 | O=C(NCCNC(=O)c1ccccc1I)c1ccccn1 [CBK269357] | 94.5642
35 | Cc1ccccc1C(=O)NCCCNC(=O)c1ccccn1 [CBK269172] | 87.2925
36 | O=C(O)CCCn1c(-c2cccc([N+](=O)[O-])c2)nc(=S)c2c1CCCC2 [CBK265657] | 118.965
37 | COc1ccccc1-c1ccc(CNC(Cc2ccsc2)c2nccs2)cc1 (stereo not shown) [CBK286315] | 84.7964
38 | O=C(c1cc(F)c(F)cc1F)N1CCC2(CCN(Cc3cc(=O)[nH]c(=O)[nH]3)C2)C1 (stereo not shown) [CBK132141] | 79.122
39 | c1ccc(CN2CCN(c3cncc(-c4cccs4)n3)CC2)nc1 [CBK065734] | 74.1927
40 | Cc1ccc(Nc2nc(N)nc(CN3CCCC3)n2)cc1 [CBK270163] | 83.9074
